In publication PMC12040169 (PLOS Biology, 2025):
The other results are listed elsewhere or left out.

Tested on: T1, C. trachomatis L2/434/Bu expressing GFP (CTL2-GFP)
T1 construct: L2/434/Bu GFP intracellular growth in HeLa cells
Set-up: species or system HeLa; C. trachomatis total inclusion area by high-content imaging, normalised to DMSO
Conditions: total inclusion area; 28.5 h, 10 µM; inhibitor
Summary of the method: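 Post-fluorescence-read fixation, DNA staining with Hoechst and high-content imaging; GFP inclusion area and number per well, and nuclei counts, used as proxies for bacterial growth and host viability.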

`CCC(NC(=O)c1csc2c1CCCC2)c1ccccc1` (centres unmarked) [CBK059006] was tested. Which “% of control remaining” value did it give?
The value was 88.0075.

How did the “% of control remaining” value turn out when `CC(C(=O)N1CCC(C(=O)c2nccs2)CC1)c1ccccc1` (centres unmarked) [CBK284163] was run?
The value was 89.074.

With `CC1=C[C@@H](CNS(=O)(=O)c2ccccc2)[C@H](C(C)C)C[C@H]1CC(=O)N1CCOCC1` [CBK289049] as the compound, how does the “% of control remaining” value read?
Its value is 110.713.

Which “% of control remaining” value does the source give for `O=C(NCC1CCCN1)c1ccccc1Nc1cccc(C(F)(F)F)c1` (centres unmarked) [CBK115916C] here?
Its value is 50.7344.

How did the “% of control remaining” value turn out when `Clc1ccc(-c2cc(CN3CCCCC3)no2)cc1Cl` [CBK018435] was run?
Its value is 116.828.

`COc1ccccc1-c1cnc2[nH]c(=O)n(CC(C)(C)CO)c2n1` [CBK064690] was tested. Which “% of control remaining” value did it give?
Its value is 86.0552.

`Cc1cc(Cl)c(S(=O)(=O)Nc2cccnc2)cc1OCC(=O)NC1CCCCC1` [CBK266773] was tested. Which “% of control remaining” value did it give?
The value was 98.3064.

`CC(C)(C(=O)N1CCC(C(=O)NCCc2c[nH]c3ccccc23)C1)c1ccc(F)cc1` (centres unmarked) [CBK286034] was tested. Which “% of control remaining” value did it give?
Its value is 113.42.

Which “% of control remaining” value does the source give for `CC(C)(C)OC(=O)NCc1ccc(CNCc2cc(F)cc(F)c2)cc1` [CBK056707] here?
Its value is 78.0498.

Which “% of control remaining” value does the source give for `Cc1ccc(S(=O)(=O)N2CCN(Cc3cc(Br)ccc3O)CC2)cc1` [CBK264242] here?
Its value is 131.021.

`CC(C)NC(=O)N1Cc2nc[nH]c2C[C@H]1c1nc(-c2ccc(F)c(Cl)c2)no1` [CBK288999] was tested. Which “% of control remaining” value did it give?
The value was 125.045.

`OC1(c2ccc(F)cc2)CC2CCC(C1)N2Cc1ccccn1` (centres unmarked) [CBK283490] was tested. Which “% of control remaining” value did it give?
The value was 73.7361.

With `CCn1cc(C(=O)N2CCC(Oc3ccccc3C)(C(=O)O)CC2)cn1` [CBK306699] as the compound, how does the “% of control remaining” value read?
Its value is 112.805.

How did the “% of control remaining” value turn out when `CCCOc1ccc(N2C(=O)CC(N3CCC(C(=O)O)CC3)C2=O)cc1` (centres unmarked) [CBK287235] was run?
Its value is 86.5871.

With `O=C(O)Cc1ccc(NC(=O)C2Cc3ccccc3C(=O)O2)cc1` (centres unmarked) [CBK269406] as the compound, how does the “% of control remaining” value read?
The value was 88.6432.

Which “% of control remaining” value does the source give for `CC(NC(=O)/C(=C\c1ccccc1)NC(=O)c1ccc(Br)o1)C(=O)O` (centres unmarked) [CBK264934] here?
Its value is 79.3601.

`CC(=O)Nc1nc2ccc(S(C)(=O)=O)cc2s1` [CBK287336] was tested. Which “% of control remaining” value did it give?
The value was 94.3583.

How did the “% of control remaining” value turn out when `COc1ccccc1CNS(=O)(=O)c1ccccc1[N+](=O)[O-]` [CBK261699] was run?
The value was 91.818.

For `Cc1ccccc1CSCC(=O)N1CCN(c2ccccc2)CC1` [CBK058577], which “% of control remaining” value is on record?
The value was 121.433.

With `O=C(O)c1nccnc1-c1ccc(COc2ccccc2)cc1` [CBK050806] as the compound, how does the “% of control remaining” value read?
Its value is 88.7569.

With `Brc1cn2ccnc2c(NCC2CC2)n1` [CBK037432] as the compound, how does the “% of control remaining” value read?
The value was 114.136.

For `CC#Cc1cn([C@H]2C[C@@H](O)[C@@H](CO)O2)c(=O)nc1N` [CBK201257], which “% of control remaining” value is on record?
The value was 84.1458.

`COC(=O)c1cc(S(=O)(=O)NC2CCCc3ccccc32)cn1C` (centres unmarked) [CBK304616] was tested. Which “% of control remaining” value did it give?
The value was 47.9537.

`CC(C)(C)OC(=O)n1cccc1-c1cncc(-c2ccc(C(=O)N3CCOCC3)cc2)n1` [CBK138520] was tested. Which “% of control remaining” value did it give?
The value was 107.57.

How did the “% of control remaining” value turn out when `CN1CCN(CC(=O)C(C#N)c2ccccc2)CC1` (centres unmarked) [CBK269270] was run?
Its value is 117.467.

How did the “% of control remaining” value turn out when `CC(C)c1ccc(C(C)NC(=O)Cn2cccc(C(=O)Nc3ccc(F)cc3)c2=O)cc1` (centres unmarked) [CBK286043] was run?
The value was 115.995.

How did the “% of control remaining” value turn out when `COc1ccc(C)cc1C1(CNC(=O)C2CCCC2N)CCOCC1` (centres unmarked) [CBK304308C] was run?
Its value is 28.5294.

How did the “% of control remaining” value turn out when `O=S(=O)(Nc1nc(-c2sccc2Cl)cs1)c1cc(Cl)ccc1Cl` [CBK014147] was run?
Its value is 91.1562.

Which “% of control remaining” value does the source give for `CC(=O)O[B-]1(OC(C)=O)N(c2ccc(S(N)(=O)=O)cc2)N=C(c2ccccc2)N=[N+]1c1ccccc1` [CBK260879] here?
Its value is 101.685.

`CC(NC(=S)Nc1ccc(S(N)(=O)=O)cc1)c1ccncc1` (centres unmarked) [CBK267073] was tested. Which “% of control remaining” value did it give?
Its value is 91.1088.

Which “% of control remaining” value does the source give for `CN1C(=O)COc2ccccc2CCCC[C@@H]2[C@H]1CCCN2C(=O)Cn1ccnc1` [CBK292152] here?
The value was 123.979.

Which “% of control remaining” value does the source give for `COc1cccc(S(=O)(=O)Nc2nn(Cc3ccc(C)cc3)c3ccccc23)c1` [CBK048043] here?
Its value is 80.2353.

Which “% of control remaining” value does the source give for `COc1ccc(Br)cc1CN1CCC(N2CCN(c3ccccc3OC)CC2)CC1` [CBK264681G] here?
The value was 97.7642.

Which “% of control remaining” value does the source give for `C[C@H]1CN2C[C@H](O)CC2CN1Cc1cn(C)c2ccc(F)cc12` (some centres unmarked) [CBK285428] here?
Its value is 94.4127.

How did the “% of control remaining” value turn out when `Cn1cc([C@@H]2O[C@H](CO)[C@H](O)C2O)c(=O)n(C)c1=O` (some centres unmarked) [CBK201191] was run?
The value was 105.819.

`NC(=O)C1CCN(C(=O)CN2CCN(Cc3ccccc3)CC2)CC1` [CBK265971C] was tested. Which “% of control remaining” value did it give?
Its value is 97.0119.

For `COc1ccc2cc(CNC(Cc3ccccc3)c3ccccc3)c(Cl)nc2c1` (centres unmarked) [CBK295357], which “% of control remaining” value is on record?
Its value is 112.958.

`COc1ccc(CCOC(=O)Nc2cn(C)nc2C(F)(F)F)cc1OC` [CBK021070] was tested. Which “% of control remaining” value did it give?
Its value is 16.3341.

With `CC(C)(C)OC(=O)N1CCN(c2ncc([N+](=O)[O-])s2)CC1` [CBK000135] as the compound, how does the “% of control remaining” value read?
Its value is 97.2356.

With `CCc1c(C)c2cc(Cl)c(O)c(CN3CCCC3)c2oc1=O` [CBK267099] as the compound, how does the “% of control remaining” value read?
The value was 138.376.

How did the “% of control remaining” value turn out when `O=S(=O)(Nc1nnc(C(F)(F)F)s1)c1ccc(Br)cc1C(F)(F)F` [CBK062013] was run?
Its value is 91.5636.

`C=CCn1c(SCC(=O)Nc2ccc(OC)cc2)nnc1-c1ccncc1` [CBK126824] was tested. Which “% of control remaining” value did it give?
The value was 113.307.

For `Cc1cc(C(=O)Nc2ccc(S(=O)(=O)N3CC(C)OC(C)C3)cc2)c2ccccc2n1` (centres unmarked) [CBK295170], which “% of control remaining” value is on record?
Its value is 72.9449.

How did the “% of control remaining” value turn out when `O=c1[nH]nc2c3c(nc(-c4ccncc4)n12)CCCC3` [CBK288029] was run?
Its value is 105.549.

With `CCCCCNC(=N)NC1Cc2ccccc2C1` [CBK036321T] as the compound, how does the “% of control remaining” value read?
Its value is 73.6991.

`Cc1nn(C)c(N2CCNCC2)c1NC(=O)c1cccn1C` [CBK050309T] was tested. Which “% of control remaining” value did it give?
Its value is 105.793.

With `Cn1c(CN2CCCCC2)nc2cc(NS(=O)(=O)c3ccc(Cl)cc3)ccc21` [CBK268404] as the compound, how does the “% of control remaining” value read?
The value was 94.7272.

`O=C(O)CCCN1C(=O)/C(=C\c2ccccn2)SC1=S` [CBK264552] was tested. Which “% of control remaining” value did it give?
The value was 103.265.

With `Cn1ccc(C(=O)NC(Cc2ccsc2)c2nccs2)cc1=O` (centres unmarked) [CBK285143] as the compound, how does the “% of control remaining” value read?
The value was 86.6899.

Which “% of control remaining” value does the source give for `O=C(Cc1c[nH]c2ccccc12)N1CCc2ccccc21` [CBK200366] here?
Its value is 132.052.
